# Experimental data published in US10011657B2, “Anti-CS1 antibodies and antibody drug conjugates” (AbbVie Biotherapeutics Inc., priority 2014, dated 2018).
# Target: T1, human CS1 (Homo sapiens, UniProt Q9NQ25)
# T1 construct: expressed in transfected cells; host or cells: 293s cells
# Assay: Flow-cytometry competition assay with AF488-labeled PDL241 (murine antibodies, Example 2)
# Type: binding
# Conditions: 293s cells transfected with human CS1; 60 μg/mL unlabeled test antibody, 6 μg/mL labeled PDL241; less than 20% inhibition = does not compete
# Experimental: 293s cells transfected with human CS1 (300,000 cells per data point) were incubated at various concentrations with an AF488-labeled PDL241 antibody. The concentration at which 80% of maximal binding occurred was identified (6 μg/mL) and used for the subsequent competition assays.
# For the competition assays, transfected 293s cells (300,000 cells per data point) were incubated for 30 min (on ice) with a tenfold excess of unlabeled test antibody (60 μg/mL). After the incubation, 6 μg/mL of AF488-labeled PDL241 was added to the cells and incubated on ice for 30 minutes. After this incubation, the cells were washed with PBS+1% FBS, and binding of AF488-labeled PDL241 was determine by flow cytometry.
# T1 sequence (Q9NQ25 23-335): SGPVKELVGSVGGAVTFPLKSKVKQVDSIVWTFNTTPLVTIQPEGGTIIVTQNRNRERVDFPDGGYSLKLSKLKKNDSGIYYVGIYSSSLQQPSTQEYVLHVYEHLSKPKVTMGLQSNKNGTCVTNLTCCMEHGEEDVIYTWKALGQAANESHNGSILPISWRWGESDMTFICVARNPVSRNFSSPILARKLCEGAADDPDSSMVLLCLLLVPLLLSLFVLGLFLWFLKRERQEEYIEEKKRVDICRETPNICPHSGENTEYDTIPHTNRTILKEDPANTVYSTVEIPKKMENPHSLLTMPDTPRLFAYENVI
molecule,measurement,value
"Mu27H1: murine anti-CS1 antibody, VH SEQ ID NO: 32, VL SEQ ID NO: 33 (antibody, V domains shown) VH: QVQLQQSGPELVKPGTSVNISCKASGYTFTDHYINWVKQRPGQGLEWIGWIFPGTGITYYNENFKGKATLTVDKSSSTAYMLLSSLTSEDSAVYFCARRGYGSFDYWGQGTTLTVSS VL: DIVMTQSPSSLAMSVGQKVTMSCKSSQSLLNSSNQKNYLAWYLQKPGQSLKLMVYFAYTRESGVPDRFIGSGSGTDFTLTISSVQAEDPADYFCQQHYSSPYTFGGGTKLEIK",Competition with AF488-labeled PDL241 for binding,do not compete with PDL241
